Reference: ChEMBL document CHEMBL4888484, “Replenishing the malaria drug discovery pipeline: Screening and hit evaluation of the MMV Hit Generation Library 1 (HGL1) against asexual blood stage Plasmodium falciparum ,using a nano luciferase reporter read-out” (2022)
Among all 150,000 compounds or so, about 540 (0.36%) showed an effect of 50% or more. The list shows a part of the results.

tested on: Plasmodium falciparum; test: Primary screen in NF54 nanoGlo assay, in single point, at 2uM, 72h; a lower Z score goes with more inhibition; assay type: functional, Erythrocyte; conditions: timepoint 72 hour

Row | Structure (SMILES) | % Inhibition | Z score
1 | COc1ccc(C(=O)N2Cc3cc(C(=O)N4CCCC4)ccc3OC[C@@H]2C)cc1F | -13% | 1.16
2 | Cc1noc(C)c1C(=O)Nc1ccc2oc(-c3cc(F)ccc3Br)nc2c1 | -6% | 1.1
3 | Cc1ccccc1-c1nocc1CCC(=O)O | -24% | 2.16
4 | O=C(Cc1ccoc1)Nc1cccc(S(=O)(=O)N2CCCCC2)c1 | 2% | -0.3
5 | COc1ccc([C@H](CC(=O)O)NC(=O)c2ccn(-c3cc(C)ccc3OC)n2)cc1OC | -1% | 0.05
6 | Cc1ccc(NC(=O)CN2CCOC3(CCCC3)C2)cc1 | -7% | 1.14
7 | Cc1noc(C)c1C(=O)N1CC(Oc2cccnc2)C1 | -7% | 1.25
8 | CCN(CC)Cc1cccc(CNC(=O)c2cc(-c3csc(C)n3)c[nH]2)c1 | -2% | 0.23
9 | CCN(Cc1ccccc1)C(=O)c1ccc2c(c1)C(=O)N(C[C@H]1CCCO1)C2=O | 1% | -0.15
10 | COc1cccc(Cn2nc(C)c(CNCCc3ccc(Cl)cc3)c2Cl)c1 | -5% | 0.68
11 | Cc1cn(C)nc1C(=O)N1CC[C@@](F)(c2cc(F)cc(F)c2)C1 | -10% | 1.35
12 | CCN(CC(C)C(=O)O)C(=O)C1CC1C1CC1 (stereo not drawn) | -18% | 2.63
13 | Cc1nc(CNC(=O)c2cc(Br)co2)ccc1[C@H](C)O | 15% | -1.92
14 | CCNc1cccnc1C(=O)NCCCN(CC)S(C)(=O)=O | -5% | 0.53
15 | O=S1(=O)CCN(S(=O)(=O)c2ccsc2)[C@H](C2CC2)C1 | -14% | 2.67
16 | O=C(c1cnn2ccncc12)N1CC=C(c2c(F)cccc2F)CC1 | -11% | 1.58
17 | Fc1ccc(-c2n[nH]cc2-c2nc3ncccc3[nH]2)c(F)c1 | -5% | 0.88
18 | O=C(NCc1cccnc1)c1cccc(S(=O)(=O)N2CCOCC2)c1 | 5% | -0.81
19 | Cc1cc(S(=O)(=O)N2CCN(C)CC2)cc2c1NC(=O)C2(C)C | -7% | 1.1
20 | C[C@]1(O)CCN(C(=O)Cc2nc3cc(Cl)ccc3[nH]2)C[C@H]1O | -28% | 2.45
21 | COc1cc(=O)n(C)cc1C(=O)N1CCc2ccccc2C1 | -5% | 0.74
22 | CN1CCC(CN(CCc2ccccc2)C(=O)C2CCCC2)CC1 | 5% | -0.68
23 | Cn1c(=O)[nH]c(=O)c2[nH]c(CCC(=O)N3CCC[C@H]3C=Cc3ccccc3)nc21 | -1% | 0.16
24 | CC#CC(=O)N1CCC(O)(Cc2ccc(OC(F)(F)F)cc2)CC1 | -2% | 0.48
25 | CS(=O)(=O)N1C[C@H]2CN(C(=O)c3ccc4ccccc4n3)CC[C@@]2(CO)C1 | -2% | 0.21
26 | Cc1cc(NC(=O)c2csnn2)no1 | -16% | 1.43
27 | O=C(NC(c1ccccn1)C1CCCC1)N1CCOCC1C1CC1 (stereo not drawn) | -6% | 0.77

Row | Structure (SMILES) | % Inhibition | Z score
28 | Cc1cc(OCCN2CCOCC2)c(C)c2c1CC[C@@H]([C@H](C)C(=O)NC(C)(C)C)C2 | -16% | 2.48
29 | Cc1ccc(CNCC2CCOC2c2cnn(C)c2)s1 (stereo not drawn) | -13% | 1.16
30 | Cc1cnc(CN2C[C@]3(CCCN(C(=O)OC(C)C)C3)CCC2=O)cn1 | 0% | 0.02
31 | CNS(=O)(=O)C1CCN(c2nc(C(C)C)no2)CC1 | -7% | 0.84
32 | Cc1ccc(C(=O)Nc2ncn(CC(=O)N3CCN(c4ccccc4)CC3)n2)cc1 | -2% | 0.21
33 | COc1ccc(/C=C/CN2C[C@H]3CCN(C)[C@H]3C2)cc1 | -11% | 2.14
34 | O=C(c1ccccc1Oc1ccccc1)N1C[C@H]2CC[C@@H](C1)[C@H]2O | -8% | 0.91
35 | CCC(CC)c1nnc(NC(=O)C2CCOCC2)s1 | -14% | 1.8
36 | CC(C)N1CCN(Cc2cccc(OCCCn3ccnc3)c2)C[C@@H]1C | -10% | 2.06
37 | COc1ccc(C(=O)N2CC(c3nc(CCOCC4CC4)no3)C2)cc1F | 1% | -0.08
38 | Cc1nc2c(c(=O)n1C)CN(C(=O)CCC(F)(F)F)C2 | 3% | -0.43
39 | CN(C(=O)[C@H]1CC(=O)N(C2CCCC2)C1)C1(C#N)CCC1 | -3% | 0.41
40 | CCOC(=O)N1CCN(C(=O)[C@H]2CCCN(c3nccn4nc(-c5cccc(Cl)c5)cc34)C2)CC1 | -1% | 0.15
41 | OCCN1CCC[C@H](c2nc(-c3ccc(F)c(F)c3)n[nH]2)C1 | -3% | 0.49
42 | O=S(=O)(NCC1(CCO)CC1)C1CC1 | 3% | -0.47
43 | Cc1cc(NC2CCCCC2)c2nncn2n1 | -1% | 0.18
44 | O=C(Nc1ccn(C2CCCCC2)n1)N1CCC[C@H](CO)CC1 | -17% | 2.24
45 | COc1ccc2cc1Oc1cccc(c1)CO[C@H]1CCN(c3nc(N)c4cnn(C)c4n3)C[C@H]1NC(=O)CC2 | 4% | -0.49
46 | COc1ccccc1C(=O)N1CCN(C2CC2)CC1 | -2% | 0.3
47 | Cc1ccc(Oc2cccc(NC(=O)Nc3ccc4c(c3)OCCO4)c2)nn1 | 5% | -0.67
48 | CCCn1ncc(C)c1NC(=O)c1ccc2c(c1)OCCO2 | -8% | 1.27
49 | Cc1cc(OC2CCN(C(=O)c3ccoc3)CC2)cc(=O)n1C | -9% | 1.5
50 | COc1cc2c(cc1OC)CN([C@H]1CCCN(C(=O)c3cc(C)[nH]n3)C1)CC2 | -14% | 1.22
51 | Cc1ccc(-c2csc(NC(=O)c3ccncc3)c2C(N)=O)cc1C | -7% | 1.15
52 | Cc1cc(C)nc(O[C@H]2CCCN(C(=O)c3cccn(C)c3=O)C2)n1 | -2% | 0.22
53 | CCC(F)(F)CN1CCC[C@H](c2cc(N3CCNCC3)[nH]n2)C1 | -4% | 0.8
54 | CO[C@H]1[C@H](NC(=O)Cc2cccs2)c2ccccc2C12CCN(Cc1ccccc1C)CC2 | 4% | -0.78
